Starred links: 1 amine or outer side, 2 acyl side, 3 side chain; linkers in the order of their positions; H or OH if unused. Non-standard residues stand in square brackets, D forms with d. Residues, ends and D or L forms follow the SMILES beside them. *: point of attachment. X21 = O=C(NC[C@@H]1C[C@@H](C(=O)[*:2])N([*:1])C1)c1ccccc1; Pro(trans-4-Ph) = O=C(O)[C@@H]1C[C@@H](c2ccccc2)CN1; X4 = O=C([C@@H]1C[C@@H](CN[*:3])CN1[*:1])[*:2]; Benzoyl(3-OPh) = O=C(c1cccc(Oc2ccccc2)c1)*; Tiq1c(1S) = O=C(O)[C@H]1NCCc2ccccc21; X1 = CCC[C@H](N[*:1])C(=O)C(=O)[*:2]; X3 = CCCC(N[*:1])C(=O)C(=O)[*:2]; X10 = CCC[C@H](N*)C(=O)C(N)=O; Chg = N[C@H](C(=O)O)C1CCCCC1; X8 = CCCC(N*)C(=O)C(=O)OCC; Nle = CCCC[C@H](N)C(=O)O; OtBu = CC(C)(C)O*; tBu = CC(C)(C)*; OAll = C=CCO*; NHPr = CCCN*
Target: Recombinant heterodimeric HCV NS3/NS4A protease (strain 1a) (Hepatitis C virus genotype 1a, UniProt P27958)
Assay: biochemical
Details: Ki* Range

| SMILES | Ki [nM] |
| --- | --- |
| CCCC[C@H](NC(=O)[C@@H](NC(=O)[C@H](CCC(=O)O)NC(=O)[C@H](CCC(=O)O)NC(C)=O)C(C)C)C(=O)N1CCC[C@H]1C(=O)N[C@@H](CCC)C(=O)C(=O)NCC(=O)O [Ac-EEV-nL-P-nV-(CO)-G-OH] (Ac-EEV[Nle]P[X1]G-OH) | 101 to 999 |
| CCC[C@H](NC(=O)[C@@H]1CCCN1C(=O)[C@@H](NC(=O)[C@@H](NC(=O)[C@H](CCC(=O)OC(C)(C)C)NC(=O)[C@H](CCC(=O)OC(C)(C)C)NC(C)=O)C(C)C)C(C)C)C(=O)C(=O)N[C@@H](COC(C)(C)C)C(=O)O [Compound 31] (Ac-E(OtBu)E(OtBu)VVP[X1]S(tBu)-OH) | 101 to 999 |
| CCC[C@H](NC(=O)[C@@H]1CCCN1C(=O)[C@@H](NC(=O)[C@@H](NC(=O)[C@H](CCC(=O)O)NC(=O)[C@H](CCC(=O)O)NC(C)=O)C(C)C)C(C)C)C(=O)C(N)=O [Ac-EEVVP-nV-(CO)-Am, Ac-Glu-Glu-Val-Val-Pro-nVal-(CO)-CONH2] (Ac-EEVVP-X10) | 101 to 999 |
| CCC[C@H](NC(=O)[C@@H]1C[C@@H](CNC(=O)c2cccc(Oc3ccccc3)c2)CN1C(=O)[C@@H](NC(=O)[C@@H](NC(=O)[C@H](CCC(=O)O)NC(=O)[C@H](CCC(=O)O)NC(C)=O)C(C)C)C(C)C)C(=O)C(=O)NCC(=O)O [Ac-Glu-Glu-Val-Val-Pro(4t-MeNHBzl(3-OPh))-nVal-(CO)-Gly-OH] (Ac-EEVV[X4](Benzoyl(3-OPh))[X1]G-OH) | 1 to 100 |
| CCC[C@H](NC(=O)[C@@H]1CCCN1C(=O)[C@@H](NC(=O)[C@@H](NC(=O)[C@H](CCC(=O)O)NC(=O)[C@H](CCC(=O)O)NC(C)=O)C(C)C)C(C)C)C(=O)C(=O)NCC(N)=O [Ac-EEVVP-nV-(CO)-G-Am] (Ac-EEVVP[X1]G-NH2) | 1000 to 10000 |
| CCC[C@H](NC(=O)[C@@H]1C[C@@H](CNC(=O)c2ccccc2)CN1C(=O)[C@@H](NC(=O)[C@@H](NC(=O)[C@H](CCC(=O)O)NC(=O)[C@H](CCC(=O)O)NC(C)=O)C(C)C)C(C)C)C(=O)C(=O)NCC(=O)O [Ac-EEVV-P(4t-MeNHCOPh)-nV-(CO)-G-OH] (Ac-EEVV[X21][X1]G-OH) | 1 to 100 |
| CCCNC(=O)C(=O)C(CCC)NC(=O)[C@@H]1CCCN1C(=O)[C@@H](NC(=O)[C@@H](NC(=O)[C@H](CCC(=O)OC(C)(C)C)NC(=O)[C@H](CCC(=O)OC(C)(C)C)NC(C)=O)C(C)C)C(C)C (stereo partly drawn) [Compound 9] (Ac-E(OtBu)E(OtBu)VVP[X3]-NHPr) | 101 to 999 |
| CCCC(NC(=O)[C@H](CCSC)NC(=O)[C@@H](NC(=O)[C@@H](NC(=O)[C@H](CCC(=O)OC(C)(C)C)NC(=O)[C@H](CCC(=O)OC(C)(C)C)NC(C)=O)C(C)C)C(C)C)C(=O)C(=O)OCC (stereo partly drawn) [Compound 20] (Ac-E(OtBu)E(OtBu)VVM-X8) | 1000 to 10000 |
| CCC[C@H](NC(=O)CN(CCCC(N)C(=O)O)C(=O)[C@@H](NC(=O)[C@@H](NC(=O)[C@H](CCC(=O)O)NC(=O)[C@H](CCC(=O)O)NC(C)=O)C(C)C)C(C)C)C(=O)C(=O)NCC(=O)O (stereo partly drawn) [Ac-Glu-Glu-Val-Val-Gly(N-Bu(4NH2,4-COOH)-nVal(CO)-Gly-OH] | 1 to 100 |
| CCC[C@H](NC(=O)[C@@H]1C[C@@H](c2ccccc2)CN1C(=O)[C@@H](NC(=O)[C@@H](NC(=O)[C@H](CCC(=O)O)NC(=O)[C@H](CCC(=O)O)NC(C)=O)C(C)C)C1CCCCC1)C(=O)C(=O)NCC(=O)O [Compound 85] (Ac-EEV[Chg][Pro(trans-4-Ph)][X1]G-OH) | 1 to 100 |
| C=CCOC(=O)CNC(=O)C(=O)C(CCC)NC(=O)[C@@H]1CCCN1C(=O)[C@@H](NC(=O)[C@@H](NC(=O)[C@H](CCC(=O)O)NC(=O)[C@H](CCC(=O)O)NC(C)=O)C(C)C)C1CCCCC1 (stereo partly drawn) [Compound 55] (Ac-EEV[Chg]P[X3]G-OAll) | 1 to 100 |
| CCCC(NC(=O)[C@@H]1c2ccccc2CCN1C(=O)[C@@H](NC(=O)[C@@H](NC(=O)[C@H](CCC(=O)O)NC(=O)[C@H](CCC(=O)O)NC(C)=O)C(C)C)C1CCCCC1)C(=O)C(=O)NCC(=O)O (stereo partly drawn) [Compound 69] (Ac-EEV[Chg][Tiq1c(1S)][X3]G-OH) | 1000 to 10000 |

From US6800434B2, “Peptides as NS3-serine protease inhibitors of hepatitis C virus” (priority 2000, dated 2004)
